# Source: PubChem BioAssay AID488969 (Vanderbilt High Throughput Screening Facility, 2010)
# Over roughly 110,000 compounds, “z-score” has its median near -0.1; the highest 2% begin near 2. This is one part of the list.
# Molecular target: Metabotropic glutamate receptor 8 (Rattus norvegicus) (UniProt P70579)
# Assay: rat mGluR8 modulators via GIRK flux, primary screen, cell-based, thallium flux, HTS (AID 488969)
# Conditions: HEK293 rat mGluR8, GIRK (G protein-gated inwardly rectifying potassium channel) thallium flux, FluoZin2; at 10 µM; stronger effect = higher value; submaximal glutamate (EC20) added with thallium
# Sequence of UniProt P70579 (P70579 whole entry, looked up): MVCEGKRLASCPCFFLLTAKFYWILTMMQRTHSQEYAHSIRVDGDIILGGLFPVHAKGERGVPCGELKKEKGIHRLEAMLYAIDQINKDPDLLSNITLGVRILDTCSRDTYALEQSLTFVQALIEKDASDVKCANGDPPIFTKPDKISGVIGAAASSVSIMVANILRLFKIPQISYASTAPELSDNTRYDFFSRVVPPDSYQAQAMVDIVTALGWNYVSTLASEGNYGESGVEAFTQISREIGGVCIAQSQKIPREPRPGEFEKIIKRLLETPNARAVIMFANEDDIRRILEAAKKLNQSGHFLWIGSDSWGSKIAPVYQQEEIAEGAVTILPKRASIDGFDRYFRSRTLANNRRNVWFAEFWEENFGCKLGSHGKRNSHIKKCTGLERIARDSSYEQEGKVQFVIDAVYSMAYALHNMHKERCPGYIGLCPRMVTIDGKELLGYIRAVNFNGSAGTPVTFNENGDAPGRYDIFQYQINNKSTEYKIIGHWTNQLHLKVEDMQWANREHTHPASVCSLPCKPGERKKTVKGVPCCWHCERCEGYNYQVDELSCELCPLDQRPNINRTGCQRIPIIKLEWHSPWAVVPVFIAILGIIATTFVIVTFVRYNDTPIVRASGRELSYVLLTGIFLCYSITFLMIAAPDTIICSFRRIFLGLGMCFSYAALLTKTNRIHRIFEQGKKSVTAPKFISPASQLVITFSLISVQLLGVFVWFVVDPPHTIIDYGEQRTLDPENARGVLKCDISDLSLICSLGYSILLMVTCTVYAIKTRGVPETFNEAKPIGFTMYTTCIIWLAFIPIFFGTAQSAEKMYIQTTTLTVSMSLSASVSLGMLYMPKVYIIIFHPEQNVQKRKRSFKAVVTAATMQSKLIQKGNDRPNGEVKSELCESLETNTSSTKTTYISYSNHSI
row,SMILES,z-score
1,Cc1ccsc1/C=N\NC(=O)Cn1nnc2ccccc21,-0.0229
2,Cc1ccc(SC(=O)COc2ccccc2C)cc1,-0.399
3,O=C(NCCCN1CCOCC1)c1ccc(CS(=O)(=O)Cc2ccccc2Cl)o1,0.265
4,Cc1cc(C)n2nc(SCc3cc(=O)oc4cc(C)c(C)cc34)nc2n1,0.128
5,CCn1nc(C)c(/C=N/NC(=O)Cn2nccc2C)c1C,0.126
6,O=C(Cn1ncc2c3ccccc3n(Cc3ccc(F)cc3)c2c1=O)N1CCN(c2ncccn2)CC1,-0.688
7,CC(=O)Nc1ccc(NC(=O)C/C(C)=N/NC(=O)C(=O)N2CCCC2)cc1,0.739
8,Brc1ccc(CSc2nnc(-c3ccccn3)n2Cc2ccco2)cc1,-0.651
9,Cc1cc(OCC(=O)N2CCOCC2)cc2oc(=O)c3ccccc3c12,0.118
10,CCC(C)(C)n1nnnc1CN1CCSCC1,-0.142
11,COCCNc1oc(-c2ccccc2Cl)nc1C#N,-0.0889
12,COc1cc(NC(=O)CN(c2ccc(C)cc2)S(=O)(=O)c2c(C)nn(C)c2C)cc(OC)c1,0.144
13,COc1ccc(-c2nc3ccccc3n2CCC(C)C)cc1OC,0.0771
14,CCOc1ccc(Br)cc1S(=O)(=O)Nc1ccc(C(=O)Nc2ccccc2OC)cc1,-0.253
15,CCCOn1nnnc1-c1ccccc1,-0.314
16,O=C(NCc1ccccc1)c1cccc(COc2cccc(Cl)c2)c1,-0.221
17,c1coc(CNc2ncnc3sc4c(c23)CCCCC4)c1,-2.31
18,COC(=O)c1sccc1NC(=O)/C=C/c1ccc(Cl)cc1,0.097
19,Cc1nc2c(c(=O)n1CCC1=CCCCC1)c1nc3ccccc3nc1n2/N=C/c1ccccc1,-0.0614
20,N#Cc1nc(Cc2cccc3ccccc23)oc1N1CCOCC1,-0.151
21,CCCCOC(=O)CSC1=C(C#N)C(c2ccc3c(c2)OCO3)CC(=O)N1 (centres undefined),-0.0947
22,CCOC(=O)c1ccc(-c2ccc(/C=C(\C#N)C(=O)NCC3CCCO3)o2)cc1 (centres undefined),-0.338

row,SMILES,z-score
1,Cn1c(CSc2nc3ccccc3s2)nnc1SCC(=O)NCCCN1CCOCC1,0.0122
2,Cc1cc(-n2c(C)cc(C(=O)COc3ccc4ccc(=O)oc4c3)c2C)no1,-0.124
3,O=C(Nc1cccc(-c2nc3ncccc3o2)c1)c1sc2ccccc2c1Cl,-0.22
4,CCOc1ccc(C)cc1S(=O)(=O)n1ccc(C)n1,-1.18
5,CNc1nc(-c2ccc([N+](=O)[O-])cc2)cs1,-0.11
6,Cn1c(=O)c2c(nc(CN3CCOCC3)n2CC(O)CO)n(C)c1=O (centres undefined),0.081
7,CCOC(=O)N1CCN(C(=O)c2cc3c(s2)-c2ccccc2OC3)CC1,-0.152
8,Cc1ccc(C(=O)Nc2cc(=O)n(C)c(=O)n2C)cc1C,-0.313
9,CCOC(=O)c1ccc(S(=O)(=O)Nc2ccc3cn[nH]c3c2)cc1,-0.0633
10,O=S(=O)(c1ccccc1)c1nc(-c2cccs2)oc1NCC1CCCO1 (centres undefined),-0.672
11,O=C(NCCN1CCOCC1)N1c2ccccc2Sc2ccccc21,0.897
12,c1ccc(CN2CCC(Nc3nc(-c4ccccc4)nc4ccccc34)CC2)cc1,0.64
13,Cc1cc(C)nc(N(C#N)CC(=O)c2ccccc2)n1,-0.609
14,N#Cc1c(-c2ccc(C(F)(F)F)cc2)cc(-c2ccccc2)[nH]c1=S,1.24
15,CCSc1nnc(NC(=O)COc2cccc3ccccc23)s1,0.16
16,CN(C)S(=O)(=O)c1ccc(C(=O)Nc2ccccn2)cc1,-0.0975
17,CCN1C(=O)CC(N2CCN(c3ccc(C(=O)c4ccncc4)cc3)CC2)C1=O (centres undefined),-0.229
18,CCSc1nnc(-c2ccc(S(=O)(=O)N3CCCC3)cc2)n1C,-0.0103
19,CC1CC(C)(C)NC(=S)N1CC(=O)NCc1ccc(Cl)cc1 (centres undefined),-0.00944
20,Cc1ccc(SC(c2ccc(C)cc2)C(Cn2cncn2)C(=O)c2ccccc2)cc1 (centres undefined),0.157
21,CSc1nnc(-c2cc3c(s2)-c2ccccc2CC3)o1,0.0264
22,CCOC(=O)c1sc(NC(=O)c2ccc(C)s2)cc1C,-0.192

row,SMILES,z-score
1,CC(=O)Oc1ccc(-c2nc(-c3cccnc3)no2)cc1,-0.307
2,CN1CCCc2cc(C#N)c(=O)[nH]c21,-0.114
3,CCn1c(SCC(=O)Nc2nc(-c3ccc(C)cc3)cs2)nnc1-c1ccccc1,0.49
4,CC(C)C(OC(=O)c1ccco1)C(=O)NCc1ccccc1 (centres undefined),-0.0488
5,Cc1ccc(C(C)C)c(OCC(=O)Nn2c(C)nc3ccccc3c2=O)c1,0.0308
6,CC(OC(=O)c1cc2sccc2n1C)C(=O)NCC1CCCO1 (centres undefined),-0.0132
7,CCCC1(C)SC(NC(C)=O)=NN1C(C)=O (centres undefined),-0.232
8,CCOc1ccc(C(=O)CSc2nnc(C3CC3)n2C)cc1,0.371
9,O=C(CCn1c(=O)c2sccc2n(CC(=O)OCc2ccccc2)c1=O)NCc1ccccc1,-0.217
10,CCOc1ccc(-n2nc(C(=O)N3CCN(CC)CC3)c3ccccc3c2=O)cc1,-0.191
11,C/C(CC(=O)Nc1ccc(Cl)c(C(F)(F)F)c1)=N\NC(=O)c1cccc(O)c1,-0.177
12,COc1cccc(Nc2nnc(SCC(=O)N3CCOCC3)s2)c1,-0.21
13,C=CCN(CC(=O)Nc1c(C)cccc1CC)C(=O)SCCC,-0.0916
14,COc1cccc(Cn2cnc3c(NS(=O)(=O)c4cccc(Cl)c4Cl)c(C)c(C)cc32)c1,-0.00392
15,COc1cc(/C=N/NC(=O)Nc2ccccc2)ccc1OCCOc1ccccc1C,-0.208
16,COc1ccc(OC)c(N(CC(=O)N2CCCC2)S(=O)(=O)c2ccc(OC)c(OC)c2)c1,-0.00672
17,Cc1ccc(-c2ccc(OCC(=O)N3CCOCC3)cc2)cc1,1.26
18,CCOC(=O)c1c(C)oc2cc(Br)c(OCC(N)=O)cc12,1.13
19,Cc1cc(C)c(C)c(S(=O)(=O)N2CCN(CC(=O)NC(=O)NCc3ccccc3)CC2)c1C,0.0583
20,COC(=O)c1c(NC(=O)/C=C/C(=O)O)sc(Cc2ccccc2)c1C,-0.663
21,Cc1c(NC(=O)c2cccc(F)c2)c(=O)n(-c2ccccc2)n1C,-0.22
22,COc1ccc([N+](=O)[O-])cc1C1NN=C(c2cccc3ccccc23)S1 (centres undefined),0.135

row,SMILES,z-score
1,COc1ccc(NC(C)C(=O)Nc2cc(C(F)(F)F)ccc2N2CCOCC2)c(OC)c1 (centres undefined),-0.332
2,CCCCN1C2=C(C(=O)CC(C)(C)C2)C(c2ccccc2)C2=C1c1ccccc1C2=O (centres undefined),-0.424
3,Cn1c(-[n+]2c(-c3ccccc3)cc(-c3ccccc3)cc2-c2ccccc2)nc2cc([N+](=O)[O-])ccc21,-0.139
4,CCOC(=O)c1c(C)n(C)c2ccc(OC)c(NC(=O)CN3CCC4(CC3)OCCO4)c12,-0.405
5,CCOC(=O)c1oc2cc(O)ccc2c(=O)c1-c1ccc(OC)cc1,-0.261
6,N=C1CCCN1CC(=O)c1ccc(Br)cc1,0.153
7,O=c1nc(NCc2ccco2)sc2ncccc12,0.489
8,O=[N+]([O-])c1cccc(-n2nnnc2CN2CCCCCC2)c1,-0.013
9,CCOCCOC(=O)C(C)Sc1n[nH]c(=O)[nH]c1=O (centres undefined),-0.177
10,CCN(CC)c1ncnc2c1sc1nc(C)cc(C)c12,0.224
11,CCOC(=O)C1=C(C)N(c2ccccc2)C(=O)C1,-0.0976
12,O=C(Cc1cccs1)N/N=C/C=C\c1ccco1,-0.214
13,O=S(=O)(Nc1ccc(Cc2ccncc2)cc1)c1ccc(Br)cc1,-0.0457
14,Cc1ccc(CSc2nnc(NC(=O)C3COc4ccccc4O3)s2)cc1 (centres undefined),0.266
15,CC(=O)c1nnn(-c2nc(N3CCCC3)nc(N(c3ccccc3)c3ccccc3)n2)c1C,0.0098
16,CCCc1cc(=O)[nH]c(SCc2ccc(Cl)cc2)n1,-0.8
17,COc1cc(C(=O)NCC(c2cccnc2)N2CCN(C)CC2)cc(OC)c1OC (centres undefined),0.674
18,CCCCC(CC)Cn1c(O)c(/C=C2\C=NN=C2c2ccccc2)sc1=S (centres undefined),-0.0682
19,COc1cc(OC)cc(-n2nc(C(=O)N3CC(C)CC(C)C3)c3ccccc3c2=O)c1 (centres undefined),-0.264
20,N#Cc1cccc(NC(=O)N2CCC(c3nc4c(nnn4Cc4cccc(Cl)c4)c(=O)[nH]3)CC2)c1,-0.0995
21,c1coc(C2Nc3ccccc3C3OCCC23)c1 (centres undefined),0.588
22,CS(=O)(=O)N(CC(=O)Nc1cccnc1)c1ccc2c(c1)OCCO2,0.255

row,SMILES,z-score
1,O=c1[nH]c(N2CCc3ccccc3C2)nc2c1CCCC2,-0.332
2,CC(NC(=O)c1ccco1)C(=O)Nc1nc(-c2ccccn2)cs1 (centres undefined),0.159
3,CCN(CC)CCn1c(SCC(=O)NCc2ccco2)nc2c(sc3ccccc32)c1=O,-0.759
4,Clc1cccc(CSc2nnc(-c3sccc3-n3cccc3)o2)c1,0.0269
5,O=C(Nn1c(O)c(C=C2N=c3ccccc3=N2)sc1=S)c1ccccc1Cl,-0.408
6,COc1ccc(N2C(=O)C(Cl)=C(NCc3ccccc3)C2=O)cc1,-0.782
7,CC(C)CCNC(=O)C(C)N(C(=O)Cn1nnc(-c2ccc(F)cc2)n1)C1CCCC1 (centres undefined),2.82
8,CCOc1ccc(N(CC(=O)NC2CCCCC2)C(=O)CSc2nnc(COc3ccccc3)o2)cc1,0.00541
9,CCOC(=O)CN1C(=O)C(Sc2n[nH]c(-c3ccc(C)cc3)n2)CCc2ccccc21 (centres undefined),-0.743
10,COc1ccc(OC)c(NC(=O)COC(=O)/C=C/c2ccccc2Cl)c1,-0.188
11,N#C/C(=C\c1ccc(N2CCOCC2)o1)c1ccccc1,0.0284
12,CCNc1nc2c(c(=O)[nH]c(=O)n2C)n1Cc1ccc(F)cc1,0.101
13,O=C(c1ccc(NC(=S)Nc2ccc(Cl)c(Cl)c2)cc1)N1CCCC1,-0.457
14,Cc1ccc2ccc(C(Nc3ccccn3)c3ccccc3)c(O)c2n1 (centres undefined),0.351
15,COc1ccc(/C=C/C(=O)C2C(=O)C=C(C)OC2=O)cc1O (centres undefined),-0.279
16,CC(=O)c1c(C)[nH]c(C(=O)Nc2nc(-c3ccc(Cl)cc3)cs2)c1C,-0.551
17,COc1ccc(Nc2nnc(SC(C(=O)Nc3ccc(OC)c(Cl)c3)c3ccccc3)s2)cc1 (centres undefined),-0.22
18,Cc1nn(C)c(C)c1NC(=O)CCCSc1nc(-c2ccco2)cc(C(F)(F)F)n1,-0.502
19,CCN(CC)CCN1C(=O)C(=O)/C(=C(/O)c2ccncc2)C1c1ccccc1 (centres undefined),0.426
20,CCOc1ccc(S(=O)(=O)Nc2cc(OC)c(OC)cc2C(=O)O)cc1,0.212
21,O=C(CCOc1ccccc1)N1CCN(S(=O)(=O)c2cccs2)CC1,-0.205
